For assay [1], the target named is T1, heterodimeric receptor comprised of IFN-αR1 and IFN-αR2 (on cells) (UniProt P17181 28-557; P48551 27-515, limits assumed).
T1 sequence (looked up) 1: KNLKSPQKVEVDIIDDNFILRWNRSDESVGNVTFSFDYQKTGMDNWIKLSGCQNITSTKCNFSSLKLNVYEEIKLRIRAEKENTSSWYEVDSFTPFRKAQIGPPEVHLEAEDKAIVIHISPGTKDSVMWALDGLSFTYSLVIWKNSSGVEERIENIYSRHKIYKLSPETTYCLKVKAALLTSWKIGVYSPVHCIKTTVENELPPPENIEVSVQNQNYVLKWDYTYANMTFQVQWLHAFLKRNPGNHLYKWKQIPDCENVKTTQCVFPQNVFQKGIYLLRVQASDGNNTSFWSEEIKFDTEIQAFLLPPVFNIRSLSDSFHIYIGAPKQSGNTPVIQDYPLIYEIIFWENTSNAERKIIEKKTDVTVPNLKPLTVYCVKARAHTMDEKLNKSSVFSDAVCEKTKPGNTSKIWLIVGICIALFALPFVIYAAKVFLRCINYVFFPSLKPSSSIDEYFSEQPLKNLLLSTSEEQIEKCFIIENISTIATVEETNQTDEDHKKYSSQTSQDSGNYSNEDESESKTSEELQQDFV
T1 sequence (looked up) 2: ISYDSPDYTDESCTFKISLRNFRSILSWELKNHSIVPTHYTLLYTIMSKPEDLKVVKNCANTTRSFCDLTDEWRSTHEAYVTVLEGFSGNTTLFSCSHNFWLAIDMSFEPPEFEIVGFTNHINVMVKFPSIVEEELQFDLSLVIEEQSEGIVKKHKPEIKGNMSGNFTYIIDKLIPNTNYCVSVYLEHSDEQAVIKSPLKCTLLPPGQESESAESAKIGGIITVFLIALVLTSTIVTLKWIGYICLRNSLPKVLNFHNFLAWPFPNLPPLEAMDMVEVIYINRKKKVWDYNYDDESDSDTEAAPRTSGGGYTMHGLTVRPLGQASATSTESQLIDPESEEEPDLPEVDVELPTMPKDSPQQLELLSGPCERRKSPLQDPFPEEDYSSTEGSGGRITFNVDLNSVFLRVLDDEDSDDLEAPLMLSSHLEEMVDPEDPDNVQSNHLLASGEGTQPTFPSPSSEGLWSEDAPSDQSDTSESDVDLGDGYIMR
Description: cell-based or functional assay.

The next assay concerns the target T2, IFN-αR1 (UniProt P17181 28-436, limits assumed).
T2 construct: Expressed in Hi5 insect cells and captured on a Biotin CAP chip for SPR; also called IFNAR1
T2 sequence (looked up): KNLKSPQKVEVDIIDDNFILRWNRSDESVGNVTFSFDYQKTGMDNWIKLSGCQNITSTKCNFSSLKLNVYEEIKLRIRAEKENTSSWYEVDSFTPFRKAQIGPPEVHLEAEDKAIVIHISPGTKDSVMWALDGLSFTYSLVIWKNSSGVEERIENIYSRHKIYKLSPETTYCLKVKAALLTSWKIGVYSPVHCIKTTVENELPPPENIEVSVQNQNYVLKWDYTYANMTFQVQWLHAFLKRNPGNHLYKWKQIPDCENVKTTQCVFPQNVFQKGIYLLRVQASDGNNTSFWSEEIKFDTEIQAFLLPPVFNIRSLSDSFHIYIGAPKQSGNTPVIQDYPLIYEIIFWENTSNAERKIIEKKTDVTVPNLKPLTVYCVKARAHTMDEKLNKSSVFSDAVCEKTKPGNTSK
Put plainly: SPR, kinetic, receptor captured on Biotin CAP chip. An excerpt: (§1) Surface plasmon resonance. GE Biacore T100 was used to measure the KD by either kinetic (type I IFNs) or equilibrium (type III IFNs) methods. Approximately 100 RU of each of the receptors of were captured on a Biotin CAP-chip (GE) including a reference channel of an unrelated cytokine receptor (IL-2Rβ).

A further assay deals with T3, IFN-αR2 (UniProt P48551 27-243, limits assumed).
T3 construct: Expressed in Hi5 insect cells and captured on a Biotin CAP chip for SPR; also called IFNAR2
T3 sequence (looked up): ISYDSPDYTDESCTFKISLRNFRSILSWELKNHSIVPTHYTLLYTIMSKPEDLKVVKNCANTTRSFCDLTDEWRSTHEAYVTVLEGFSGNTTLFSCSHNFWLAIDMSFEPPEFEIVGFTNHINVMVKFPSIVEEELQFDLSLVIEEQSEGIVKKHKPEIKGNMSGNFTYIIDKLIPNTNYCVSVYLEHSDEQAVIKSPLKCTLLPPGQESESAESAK
Description: SPR, kinetic, receptor captured on Biotin CAP chip.
Excerpt: as §1
Background: SPR reads the build-up and loss of mass on a sensor chip optically.

B1: IFNW K152R (ligand)
chain: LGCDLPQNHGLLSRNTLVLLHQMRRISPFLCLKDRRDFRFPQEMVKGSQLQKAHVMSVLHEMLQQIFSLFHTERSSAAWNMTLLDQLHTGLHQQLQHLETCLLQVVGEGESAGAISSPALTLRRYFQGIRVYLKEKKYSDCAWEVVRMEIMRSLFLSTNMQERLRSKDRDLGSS
notes: also called IFN-ω (Lys152Arg)
Consider B1, for which the “EC50 AP (M); proliferation inhibition of WISH cells” value in assay [1] was 2.2e-11 M. Further, the values for the Kd in the assay with IFN-αR1 and with IFN-αR2 were 4.3 µM and 0.2 nM, respectively.

As usually defined, the Kd is the concentration at which binding is half-saturated. A lower Kd goes with tighter binding.
